According to patent US12194105B2, “Composition and method for new antimicrobial agents with secondary mode of action provided by conjugation of an antimicrobial to a guanidinium-rich molecular transporter” (The Board of Trustees of the Leland Stanford Junior …, priority 2018, dated 2025):

Tested on: MRSA USA400 MW2
Experiment: Time-kill in PBS, stationary-phase cells
Conditions: V and V-r8 20 μM, lysostaphin 1.25 μg/ml (10×MIC); detection limit 2.3
Method: FIG. 3A-3B. […] Assay detection limit=2.3.
Time-Kill Kinetics Experiments in MHB and PBS. A stationary-phase culture of USA400 MW2 was prepared by inoculating 1 colony into 4 mL media and growing at 37° C. for 14-16 h. The culture was pelleted 3 times by centrifugation at 10,000 g for 1 min to remove spent medium and diluted in PBS to OD 0.1 just prior to treatment. 50 μL of the bacterial suspension was mixed with 50 μL of treatment compounds at 2-times the desired concentration for a final treatment concentration of 20 μM. The plate was incubated at 37° C. with 200 rpm shaking, and CFUs were plated on Tryptic soy agar via serial dilution at determined time points. Lysostaphin (1.25 μg/mL) served as a positive control.

| Compound | cell killing, time-kill in PBS |
| --- | --- |
| CN[C@H](CC(C)C)C(=O)N[C@H]1C(=O)N[C@@H](CC(N)=O)C(=O)N[C@H]2C(=O)N[C@H]3C(=O)N[C@H](C(=O)N[C@H](C(=O)NCCCCCC(=O)N[C@H](CCCNC(=N)N)C(=O)N[C@H](CCCNC(=N)N)C(=O)N[C@H](CCCNC(=N)N)C(=O)N[C@H](CCCNC(=N)N)C(=O)N[C@H](CCCNC(=N)N)C(=O)N[C@H](CCCNC(=N)N)C(=O)N[C@H](CCCNC(=N)N)C(=O)N[C@H](CCCNC(=N)N)C(N)=O)c4cc(O)cc(O)c4-c4cc3ccc4O)[C@H](O)c3ccc(c(Cl)c3)Oc3cc2cc(c3O[C@@H]2O[C@H](CO)[C@@H](O)[C@H](O)[C@H]2O[C@H]2C[C@](C)(N)[C@H](O)[C@H](C)O2)Oc2ccc(cc2Cl)[C@H]1O [V-r8, vancomycin-D-octaarginine] | bacterial killing down to the assay's detection limit |
| CN[C@H](CC(C)C)C(=O)N[C@H]1C(=O)N[C@@H](CC(N)=O)C(=O)N[C@H]2C(=O)N[C@H]3C(=O)N[C@H](C(=O)N[C@H](C(=O)O)c4cc(O)cc(O)c4-c4cc3ccc4O)[C@H](O)c3ccc(c(Cl)c3)Oc3cc2cc(c3O[C@@H]2O[C@H](CO)[C@@H](O)[C@H](O)[C@H]2O[C@H]2C[C@](C)(N)[C@H](O)[C@H](C)O2)Oc2ccc(cc2Cl)[C@H]1O [Vancomycin] | does not instantly kill cells |
| Lysostaphin: an antibacterial enzyme that induces membrane permeabilization, positive control | rapid killing |
